Values joined by “and” are separate entries in the source; they are usually repeats but may differ in a detail not shown here. Equal entries are not always repeated. The inconclusive results got no clear call from the source; some entries with a clear call stand among them for comparison. Potencies of inconclusive entries are doubtful fits and often do not repeat. The source holds several records for some structures; these can differ, active in one and inactive in another. Active and inactive are the calls of the source. The call rests on the fitted dose curve; in most records, active means well fitted inhibition curve with a large enough effect in the signal ratio in the repeat runs (not every such curve was filed as active); inconclusive means weak or mixed curves; inactive means flat fitted curve, though single readings scatter; the % refers to the signal ratio.
These compounds were tested against Progesterone receptor (Homo sapiens) (UniProt P06401) (assay: qHTS assay to identify small molecule antagonists of the progesterone receptor (PR) signaling pathway (AID 1346795)). Details: PR-UAS-bla HEK293T, beta-lactamase FRET ratio, 16 h; activity change, negative = inhibition: at 92.4 µM (top of the series) unless noted.
How it was run: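 PR-UAS-bla HEK293T cells with beta-lactamase reporter under UAS control, in 2% charcoal-stripped FBS, treated with compounds plus 1 nM promegestone (R5020, final) for 16 hr at 37C. Read-out: FRET beta-lactamase substrate fluorescence after 2 hr at room temperature.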
On the % scale 0 is the no-effect control and ±100 the full control effect; potency means the concentration at half of the fitted maximal effect; tags describe the fitted curve by direction and shape.

Sequence of UniProt P06401 (P06401 whole entry, looked up): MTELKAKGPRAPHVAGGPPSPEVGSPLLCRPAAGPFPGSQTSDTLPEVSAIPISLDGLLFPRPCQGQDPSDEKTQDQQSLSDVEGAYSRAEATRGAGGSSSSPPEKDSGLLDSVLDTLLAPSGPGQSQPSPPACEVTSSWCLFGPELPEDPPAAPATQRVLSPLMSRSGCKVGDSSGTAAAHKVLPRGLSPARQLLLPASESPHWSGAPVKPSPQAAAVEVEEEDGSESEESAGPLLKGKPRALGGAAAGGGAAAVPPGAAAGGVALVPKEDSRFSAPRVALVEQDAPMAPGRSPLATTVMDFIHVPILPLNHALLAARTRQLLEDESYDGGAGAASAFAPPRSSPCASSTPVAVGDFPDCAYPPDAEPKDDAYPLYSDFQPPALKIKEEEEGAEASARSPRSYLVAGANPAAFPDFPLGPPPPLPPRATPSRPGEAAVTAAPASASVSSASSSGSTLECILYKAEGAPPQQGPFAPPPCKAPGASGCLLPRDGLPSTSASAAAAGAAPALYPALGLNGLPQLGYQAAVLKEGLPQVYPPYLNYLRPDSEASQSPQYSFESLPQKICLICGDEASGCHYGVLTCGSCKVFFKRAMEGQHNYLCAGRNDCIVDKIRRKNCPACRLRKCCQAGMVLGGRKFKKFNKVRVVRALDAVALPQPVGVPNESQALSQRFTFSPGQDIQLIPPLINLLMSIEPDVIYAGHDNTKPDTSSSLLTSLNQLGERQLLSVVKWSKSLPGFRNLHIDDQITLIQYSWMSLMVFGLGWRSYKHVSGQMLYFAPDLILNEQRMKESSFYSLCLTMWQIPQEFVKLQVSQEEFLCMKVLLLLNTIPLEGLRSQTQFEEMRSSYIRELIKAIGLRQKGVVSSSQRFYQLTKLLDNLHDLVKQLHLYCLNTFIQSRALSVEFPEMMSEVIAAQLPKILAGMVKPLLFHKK

| Compound | Potency | activity change, negative = inhibition |
| --- | --- | --- |
| COP(=S)(OC)Oc1ccc(Sc2ccc(OP(=S)(OC)OC)cc2)cc1 | active: 54.5 µM |  |
| C=CCOC(=O)c1ccccc1N |  | inconclusive: -47.3% |
| Nn1cnnc1 | inactive |  |
| CCCCN(CCCC)SN(C)C(=O)Oc1cccc2c1OC(C)(C)C2 |  | inconclusive: -1.57% |
| O=C(NC(=O)c1c(F)cccc1F)Nc1cc(Cl)c(Oc2ncc(C(F)(F)F)cc2Cl)c(Cl)c1 | inconclusive: 8.27 µM [rising, full curve] |  |
| CC1COC(Cn2cncn2)(c2ccc(Oc3ccc(Cl)cc3)cc2Cl)O1 (stereo not given) | active: 24.3 µM |  |
| NS(=O)(=O)C(F)(F)C(F)(F)C(F)(F)C(F)(F)C(F)(F)C(F)(F)C(F)(F)C(F)(F)F | inconclusive: 0.0306 µM [rising, full curve] |  |
| CCOc1cc(Oc2ccc(C(F)(F)F)cc2Cl)ccc1[N+](=O)[O-] | active: 15.5 µM and active: 13.7 µM |  |
| CCOC(=O)C1(c2ccccc2)CCN(CCC(C#N)(c2ccccc2)c2ccccc2)CC1 | inconclusive: 4.73 µM [falling, full curve] |  |
| CCC(CC)Nc1c([N+](=O)[O-])cc(C)c(C)c1[N+](=O)[O-] | inconclusive: 9.82 µM [full curve] and inconclusive: 27.3 µM |  |
| Nc1ccc(Cl)c(Cl)c1 | inconclusive: 27.9 µM [falling, partial curve] and inconclusive: 48.6 µM [falling, partial curve] |  |
| O=[Se]=O |  | inconclusive: -13.1% [at 42.5 µM] |
| CSC(=O)c1c(C(F)F)nc(C(F)(F)F)c(C(=O)SC)c1CC(C)C | active: 30.5 µM |  |
| O=[N+]([O-])c1ccc(Oc2ccc(C(F)(F)F)cc2[N+](=O)[O-])cc1 | active: 7.7 µM |  |
| CC1COC2(c3ccccc3Cl)c3cc(Cl)ccc3NC(=O)CN12 (stereo not given) | inconclusive: 13.3 µM |  |
| CCCC(Cn1cncn1)c1ccc(Cl)cc1Cl (stereo not given) | inconclusive: 19.3 µM [rising, full curve] |  |
| CSC1=N[C@@](C)(c2ccccc2)C(=O)N1Nc1ccccc1 | active: 43.3 µM |  |
| CC(C)(OOC(C)(C)c1ccccc1)c1ccccc1 | inconclusive: 33.9 µM [rising, partial curve] | inconclusive: -30.7% |
| NNc1ccccc1 |  | inconclusive: -23.2% |

— PubChem BioAssay (Tox21)
